# Laboratory results published in PubChem BioAssay AID463173 (ICCB-Longwood Screening Facility, Harvard Medical School, 2010).
# Out of some 52,000 compounds screened, about 1,700 (3.3%) were called active. Rule as the data show it: active = survival mostly below about 52% (no sharp cut-off); inactive = mostly above about 56%. The list shows a part of the results.
# Test system: Wild type
# Assay: S. aureus survival, RN4220 and DeltatarO strains – OD600, teichoic acid synthesis inhibitors, primary screen (AID 463173)
# Details: S. aureus RN4220 wild type/DeltatarO growth, OD600, 18 h, active compounds read low, screened at 18.75 µg/mL (by protocol)
row,SMILES,survival
1,CCN(Cc1ccccc1)C(=O)Cn1c(=O)n(-c2ccc(Cl)cc2)c(=O)c2c(C)c(C(=O)N(C)C)sc21,inactive: 88%
2,Cc1c(CCC(=O)NCc2cccc(Cl)c2)c(=O)oc2c(C)c(O)ccc12,inactive: 88%
3,Cc1ccc(CCNC(=O)CS(=O)Cc2nc(-c3ccccc3C)oc2C)cc1 (configuration not stated),inactive: 77%
4,O=C(CSc1nc2c(oc3ccccc32)c(=O)n1Cc1ccco1)Nc1ccccc1Cl,inactive: 72%
5,O=C(Cn1cnc2c(oc3ccccc32)c1=O)Nc1ccc(F)cc1F,inactive: 113%
6,O=C(Cn1ncc2c3ccccc3n(Cc3cccc(Cl)c3)c2c1=O)NCc1cccs1,inactive: 91%
7,O=C(Nc1nc2ccccc2s1)c1ccc(S(=O)(=O)N2CCCC2)cc1,inactive: 80%
8,CC1CCCN(S(=O)(=O)c2ccc(S(=O)(=O)N3CCN(C=O)CC3)cc2)C1 (configuration not stated),inactive: 102%
9,CCOc1ccc(C2C(=O)N(C3CCCCCC3)CC(=O)N2CCc2ccc(OC)c(OC)c2)cc1OC (configuration not stated),inactive: 72%
10,O=S(=O)(c1ccc2nc(NCc3ccccc3Cl)ccc2c1)N1CCCCC1,inactive: 71%
11,COc1ccc(Nc2cc(C)c3ccccc3n2)cc1,inactive: 116%
12,COc1cc(Cl)c(NS(=O)(=O)c2ccc(-c3cnc(C4CC4)o3)cc2)c(OC)c1,inactive: 91%
13,CC(CNC(=O)c1ccc(CSc2nc3ccncc3n2Cc2ccccc2)cc1)c1ccccc1 (configuration not stated),inactive: 94%
14,CN(C)S(=O)(=O)c1ccc(S(=O)(=O)N2CCC(c3nc4c(nnn4Cc4cccc(F)c4)c(=O)[nH]3)CC2)cc1,inactive: 113%
15,COc1ccc(CNC(=O)CSc2nc(-c3ccc(OC)c(OC)c3)cc(C(F)(F)F)n2)cc1,inactive: 83%
16,CCOC(=O)c1ccc(NC(=O)NCCOCCn2c(=O)oc3ccccc32)cc1,inactive: 80%
17,CCOC(=O)c1cc(S(=O)(=O)N2CCN(c3ccc(C(C)=O)cc3)CC2)[nH]n1,inactive: 134%
18,CCS(=O)(=O)c1nc(S(=O)(=O)c2ccc(C)cc2)c(NCCCOC)s1,inactive: 74%
19,Nc1cc(=O)nc(SCC(=O)Nc2ccc(F)cc2)n1CCc1ccccc1,inactive: 79%
20,O=C(O)COCC(=O)Nc1ccc2c(c1)CCC2,inactive: 117%
21,COc1ccc(N2CC(NC(=O)c3ccco3)CC2=O)cc1 (configuration not stated),inactive: 49%
22,Cc1cc2oc3c(c(=O)c2cc1C)C1(C(=O)N(C)c2ccccc21)N(CCO)C3=O (configuration not stated),inactive: 79%

row,SMILES,survival
1,CCn1c(CNC(=O)c2ccc(OC)cc2)nnc1SCC(=O)Nc1ccc(C)cc1,inactive: 125%
2,CC(=O)c1ccc(NC(=O)c2ccc(-c3ccc(Cl)cc3)o2)cc1,inactive: 141%
3,CCN(CC)CCNC(=O)c1ccc2nc(CCc3ccccc3)oc2c1,inactive: 87%
4,O=C(Nc1ccccc1Br)C(Cc1ccccc1)NS(=O)(=O)c1cccc2nsnc12 (configuration not stated),inactive: 82%
5,COc1ccccc1NC(=O)C1CCN(C(=O)c2sc3nc[nH]c(=O)c3c2C)CC1,inactive: 89%
6,COc1ccc(CNC(=O)Cn2ncc3c([nH]c4ccccc43)c2=O)cc1,inactive: 63%
7,Cc1cccc(CCNC(=O)CCc2c(C)nc3c4c(C)cc(C)nc4nn3c2C)c1,inactive: 81%
8,O=C1C(=O)N(CC2CCCO2)C(c2ccccc2)/C1=C(/O)c1ccccc1 (configuration not stated),inactive: 101%
9,CCc1cccc(C)c1NC(=O)Cn1c(=O)cc(C)c2c(C)nn(-c3cccc(F)c3)c21,inactive: 94%
10,Cc1nn(-c2ccc(N3CCCC3)nn2)c(C)c1CCC(=O)Nc1ccc(F)cc1F,inactive: 75%
11,CN1CCN(CCC(O)COc2ccc(OCC(O)CCN3CCN(C)CC3)cc2)CC1 (configuration not stated),inactive: 116%
12,Cc1c(C(=O)Nc2ccccc2F)sc2ncnc(N(C)C3CCCCC3)c12,inactive: 32%
13,COc1ccccc1N1CCN(c2cc(C)nc3nc(-c4ccc(C)cc4)nn23)CC1,inactive: 77%
14,O=C(NCc1ccc(F)cc1)c1ccc(Nc2nc3ccccc3n3nnnc23)cc1,inactive: 87%
15,Cn1c(=O)n(-c2ccc3c(c2)OCO3)c2nc(-c3ccccc3)nc(C(N)=O)c21,inactive: 83%
16,COc1ccc(NC(=O)c2sc3nc[nH]c(=O)c3c2C)cc1Cl,inactive: 71%
17,COc1ccc(C)cc1NC(=O)c1ccc2c(SCC(=O)O)c3c(nc2c1)CCCC3,inactive: 73%
18,CCOc1ccc(NC(=O)C2CC(=O)N(c3ccc(C(C)C)cc3)C2)cc1 (configuration not stated),inactive: 73%
19,COc1cccc2c1cc1c(=O)n(CC(=O)N3CCN(c4cccc(C)c4)C(C)C3)nc(C)n12 (configuration not stated),inactive: 131%
20,Cc1cc(C)cc(NC(=O)CSc2cc(C)[nH]c(=O)n2)c1,inactive: 72%
21,CCCC1=Nc2cc(C(=O)NC3CCCC3)ccc2Sc2ccc(C)cc21,inactive: 48%
22,CCOC(=O)CC(NC(=O)Cn1nnc(-c2ccc(C(F)(F)F)cc2)n1)c1ccc(OC)cc1 (configuration not stated),inactive: 110%

row,SMILES,survival
1,COc1cc(CN(C(=O)COc2ccc(C)cc2)c2ccccn2)cc(OC)c1OC,inactive: 82%
2,CC(=O)Nc1ccc(-c2cc(C(=O)O)c3c(-c4ccccc4)[nH]nc3n2)cc1,inactive: 63%
3,COc1ccc(C(=O)N2CCN(Cc3cc(=O)n4nc(-c5ccccc5C)sc4n3)CC2)cc1OC,inactive: 124%
4,CCCCNC(=O)c1nn(-c2ccc(CC)cc2)nc1CO,inactive: 84%
5,Cc1cccc(NC(=O)C2CCN(S(=O)(=O)c3ccc(F)cc3)CC2)c1C,inactive: 73%
6,CC(NC(=O)c1ccccc1NC(=O)c1ccccc1)C(=O)NCc1ccco1 (configuration not stated),inactive: 104%
7,CCc1ccccc1NC(=O)Cn1nnc(C(=O)NCc2ccccc2Cl)c1N,active: -3%
8,CCCn1c(=O)sc2cc(NC(=O)COc3ccc(Cl)cc3)ccc21,inactive: 75%
9,CC1CCC(NC(=O)c2ccc3c(c2)N(Cc2cccc(Cl)c2)C(=O)c2ccccc2S3(=O)=O)CC1 (configuration not stated),inactive: 88%
10,CN(C)S(=O)(=O)c1ccc2c(c1)C(=C(C#N)C#N)c1cc(S(=O)(=O)N(C)C)ccc1-2,inactive: 108%
11,CCOC(=O)c1ccc(NS(=O)(=O)c2ccc3c(c2)n(C)c(=O)n3C)cc1,inactive: 71%
12,CCN(CC)CC(C)CNC(=O)c1cc(-c2ccc(Br)s2)nc2ccccc12 (configuration not stated),inactive: 49%
13,COc1cccc(CN(C(=O)c2oc3cc(C)ccc3c2C)C2CCS(=O)(=O)C2)c1 (configuration not stated),inactive: 79%
14,CCN(CC)CCCNC(=O)CN1C(=O)CCn2nc(-c3cn(C)c4ccccc34)cc21,inactive: 72%
15,COc1ccc(-c2nc3c4ccccc4n(CC(=O)N4CCN(c5ccccc5OC)CC4)c(=O)n3n2)cc1,inactive: 85%
16,CCOC(=O)C1CCN(C(=O)c2ccccc2N(C)S(C)(=O)=O)CC1,inactive: 108%
17,COc1cccc(-n2c(=O)c3c4c(sc3n(Cc3ccc(C)cc3)c2=O)CCCC4)c1,inactive: 86%
18,Cc1ccc2nc(-c3ccccc3F)c(Nc3ccc(Cl)cc3)n2c1,active: 11%
19,COc1ccc(-c2nc(CSCC(=O)N3CCN(c4cccc(C)c4C)CC3)c(C)o2)cc1OC,inactive: 22%
20,COc1ccc(CCNC(=O)c2ccc3c(c2)c(C)c(C)n3Cc2ccc(F)cc2)c(OC)c1OC,inactive: 73%
21,O=S(=O)(NCc1ccc(F)cc1)c1ccc(-c2cnc(C3CC3)o2)cc1,inactive: 80%
22,Cc1nnc(NC(=O)CSCc2cc(=O)c3cc(Cl)ccc3[nH]2)s1,inactive: 72%

row,SMILES,survival
1,Cc1c(C(=O)N2CCCC2)oc2c1-c1nn(CC(=O)NCCCOC(C)C)cc1CC2,inactive: 93%
2,COc1cccc(C(=O)Nc2ccccc2C(=O)OCc2cc(=O)n3nc(C4CC4)sc3n2)c1,inactive: 65%
3,O=C(O)CC(C(=O)O)c1cn(Cc2ccccc2)c2ccccc12 (configuration not stated),inactive: 105%
4,Cc1ccc(C(=O)c2cn(CC(=O)NC3CCCCC3)c3nc(C)ccc3c2=O)cc1,inactive: 92%
5,COc1cc(-c2nc(Cn3nnc(C(=O)Nc4ccccc4)c3C)c(C)o2)cc(OC)c1OC,inactive: 54%
6,COc1ccccc1-n1ncc2c(=O)[nH]c(SCC(=O)Nc3ccc(Cl)cc3)nc21,inactive: 66%
7,Cc1ccc(CNC(=O)c2cccn2-c2nnc(N3CCCCC3)s2)cc1,inactive: 124%
8,Cc1c(C)c2c(cc(C)c3c(-c4ccccc4)coc32)oc1=O,inactive: 82%
9,O=C(NC1CC(=O)N(c2cccc(F)c2)C1)C1CCCC1 (configuration not stated),inactive: 66%
10,CN(C)CCN(Cc1ccccc1)S(=O)(=O)c1ccc2[nH]c(=O)ccc2c1,inactive: 76%
11,O=C(c1cccn1-c1nnc(N2CCCC2)s1)N1CCN(c2ccccc2)CC1,inactive: 19%
12,O=C(Nc1cc2c(cc1C(=O)c1ccccc1)OCCO2)c1ccc(Br)cc1,inactive: 86%
13,Cc1ccccc1-c1nc(SCC(=O)NCc2ccco2)c2c(=O)n(C)c(=O)n(C)c2n1,inactive: 78%
14,COc1ccc2oc(=O)c(-c3csc(-c4ccc(Br)cc4)n3)cc2c1,inactive: 80%
15,COc1cccc(-n2cc(C(=O)NCCc3ccc(C)cc3)c3ccccc3c2=O)c1,inactive: 82%
16,COc1ccc(-c2csc3nc(-c4ccccc4C)oc(=O)c23)cc1OC,inactive: 76%
17,Cc1ccc(NC(=O)C2CCN(S(=O)(=O)c3c(C)noc3C)CC2)c(C)c1,inactive: 94%
18,O=C(/C=C\c1ccc2c(c1)OCO2)NC1CC(=O)N(c2ccc(Cl)cc2)C1 (configuration not stated),inactive: 77%
19,COc1ccc(C2(Nc3cccc(C(=O)O)c3C)C(=O)c3ccccc3C2=O)cc1,inactive: 74%
20,FC(c1nc2ccccc2[nH]1)C(F)(F)F (configuration not stated),inactive: 111%
21,CC(=O)N1CCOc2cc(S(=O)(=O)NCc3ccc(C)cc3)c(Cl)cc21,inactive: 83%
